Measurements: PubChem BioAssay AID652104 (National Center for Advancing Translational Sciences (NCATS), 2013)
About 7,200 (1.8%) of roughly 410,000 compounds were called active. The shares of active, inactive and inconclusive entries below differ from those in the screen. Calls come from the whole dose curve; as a rule, active = well fitted activation curve with a large enough effect; inconclusive = small, poorly fitted or top-dose-only effect, or another doubt; inactive = no such curve, though single readings can be large or run the other way. No potency is given beside an inconclusive call; the fits are too rough.

Experiment: qHTS of TDP-43 Inhibitors; note: nearly all actives have a fitted effect of over 50% in size; for growth rescue (activation): % of control where 0% means no effect
Conditions: TDP-43 expressing yeast growth rescue, BacTiter-Glo, 24 h; growth rescue (activation): at 46.1 µM (top of the series) unless noted
Method in brief: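 In this qHTS, compounds that restore growth of yeast expressing TDP-43 appear as activators. Cells (OD600=0.02, galactose medium, raffinose-pregrown) are incubated with compound 24 hr at 30 deg C and growth is quantified by BacTiter-Glo.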
Potency is the fitted concentration of half-maximal effect; tags give direction and shape of the fitted curve.

| SMILES | growth rescue (activation) | Potency |
| --- | --- | --- |
| Cc1ccc(S(=O)Cc2nc(-c3ccc(C(=O)NC(C)c4ccccc4)cc3)oc2C)cc1 (stereo unspecified) | inactive: -21.6% |  |
| CCOC(=O)C[C@H]1c2ccc(C(F)(F)F)cc2S(=O)(=O)N1Cc1ccccc1 |  | inconclusive [activator, partial curve] |
| c1ccc(-c2c3ccccc3nc3[nH]c4ccccc4c23)cc1 |  | inconclusive [activator, single point] |
| Cc1ccccc1S(=O)(=O)Oc1ccccc1C(=O)Oc1ccccc1 | inactive: 14.3% |  |
| S=c1nc(-c2sccc2OCc2ccc(Cl)cc2Cl)[nH][nH]1 |  | inconclusive [activator, full curve] |
| N#C/C(=N\Nc1cccc([N+](=O)[O-])c1)C(=O)c1ccc(Br)cc1 | inactive: 7.97% |  |
| COc1cc(-c2nnc(SCC(=O)NC(C)C)o2)cc(OC)c1OC | inactive: -17.7% |  |
| Cc1noc(C)c1COc1ccc(C(=O)N2CCN(c3cccc(Cl)c3)CC2)cc1 |  | active: 22.4 µM |
| Cc1ccc(-c2cc(C(=O)N3CCN(S(=O)(=O)c4ccc(Br)s4)CC3)[nH]n2)c(C)c1 | inactive: 23.5% |  |
| C/C(=N\O)c1cc(Cl)ccc1O |  | inconclusive [activator, partial curve] |
| O=C(NCc1ccc(F)cc1)c1cc2c(s1)-c1ccccc1SC2 |  | inconclusive [activator, partial curve] |
| CCOc1ccc(N2C(=O)CC(SC(=NC)Nc3cccc(OC)c3)C2=O)cc1 (stereo unspecified) |  | inconclusive [activator, single point] |
| Cc1ccc(C(=O)Nc2nc(-c3ccccc3)c(-c3ccccc3)o2)cc1 |  | inconclusive [activator, single point] |
| CCCCNC(=S)N1CCC(Cc2ccccc2)CC1 | inactive: 10.7% |  |
| COc1ccc(C(O)c2nc(-c3cccc(C(F)(F)F)c3)cs2)cc1 (stereo unspecified) |  | active: 22.4 µM |
| COc1ccc(C(=O)COC(=O)C2CCN(c3ccc(C(F)(F)F)cn3)CC2)c(OC)c1 | inconclusive: 37.5% [activator] |  |
| O=C(NCc1ccc2c(c1)OCO2)c1nn(-c2ccccc2)c(=O)c2ccccc12 |  | inconclusive [activator, single point] |
| CC(C)CC(=O)NC(=S)N(Cc1ccccc1)Cc1ccccc1 |  | inconclusive [activator, single point] |
| COc1ccc2c(c1)OC[C@H]1[C@H]2N2C(=O)c3cc(OC)ccc3NC(=O)[C@@]2(C)[C@H]1c1ccccc1 |  | active: 5.01 µM |
| COc1cccc(CCNc2ncnc3c2nnn3C)c1 | inactive: 29.8% |  |
| CCn1c(-c2csc3c2CCC(C)C3)n[nH]c1=S (stereo unspecified) |  | active: 11.2 µM |
| Fc1ccc(CNc2cc(-c3ccccc3)nc3nncn23)cc1 |  | active: 17.8 µM |
| Cc1cc(NC(=O)COc2c(C)cccc2C)no1 |  | inconclusive [activator, partial curve] |

| SMILES | growth rescue (activation) | Potency |
| --- | --- | --- |
| Nc1c(C(=O)Nc2ccc(Cl)cc2F)sc2nc(-c3cccs3)ccc12 | inactive: 24.6% |  |
| Clc1ccc(-c2nnc(CSc3nnc(-c4cccs4)n3Cc3ccccc3)o2)cc1 |  | active: 17.8 µM |
| COc1ccc(CN2C(=O)c3ccccc3C(/C=N\OCc3ccc(C)cc3)C2=O)cc1 (stereo unspecified) |  | inconclusive [activator, partial curve] |
| Cc1nn(C)c(Nc2ccc(Br)cc2)c1Br |  | active: 17.8 µM |
| COc1ccc(-c2nc(CS(=O)(=O)CC(=O)NCCc3ccccc3)c(C)o2)cc1 | inactive: 11.9% |  |
| Cc1c(Cl)cccc1N=C1SCCN1C(=O)CN1C(=O)NC2(CCCC2)C1=O |  | inconclusive [activator, single point] |
| [O-][n+]1c2ccccc2cc2ccccc21 |  | inconclusive [activator, partial curve] |
| Clc1ccc2[nH]c3c(c2c1)CCc1cn[nH]c1-3 | inconclusive: -90.6% [activator] |  |
| CCC(=O)N(C)C[C@H]1Oc2cc(Br)ccc2S(=O)(=O)N([C@@H](C)CO)C[C@H]1C |  | inconclusive [activator, partial curve] |
| CSc1nc(-c2ccco2)nn1S(=O)(=O)c1ccc(C)cc1 |  | inconclusive [activator, partial curve] |
| Fc1ccccc1-c1nnc2c3ccccc3nc(N3CCOCC3)n12 |  | inconclusive [activator, partial curve] |
| COc1ccc(OC)c(N/C=C/C(=O)c2ccc(OC)c(OC)c2)c1 |  | inconclusive [activator, single point] |
| Cc1ccc(C(=O)NC(=S)Nc2ccccc2C(F)(F)F)cc1C |  | inconclusive [activator, single point] |
| O=C(Nc1ccc(F)c(Cl)c1)C1CCCN1S(=O)(=O)c1ccc(F)cc1 (stereo unspecified) |  | inconclusive [activator, single point] |
| CC(C)Cc1ccc(C(C)CC2=CCC(CN(C)C)C2=O)cc1 (stereo unspecified) |  | inconclusive [activator, single point] |
| Cc1ccc2c(c1)C(=O)N1[C@H]3c4cc(Cl)ccc4OC[C@@H]3[C@H](c3ccccc3)[C@]1(C)C(=O)N2 | inactive: -15.3% |  |
| Cc1ccc2c(c1C)-c1c(ccc(C)c1C)C(=O)C2=O | inconclusive: -93.1% [activator] |  |
| Cc1ccc(C(=O)Nc2cccc3cccnc23)cc1Br |  | inconclusive [activator, partial curve] |
| CC(C)(C)c1cc[n+](/C(C(=S)NC2CC2)=C(/[O-])c2ccc(Cl)s2)cc1 |  | inconclusive [activator, partial curve, poor fit] |
| Oc1ccc2ccccc2c1CNc1ccc2ccccc2c1 | inconclusive: -93.7% [activator] |  |
| CN1c2ccccc2C(O)=C(C(=S)Nc2ccccc2)S1(=O)=O |  | inconclusive [activator, single point] |
| Cc1ccc(S(=O)(=O)Nc2cccc(-c3cn4ccsc4n3)c2)cc1 |  | inconclusive [activator, single point] |
| CN1C(C)(C)CCCC1(C)C |  | inconclusive [activator, full curve, poor fit] |
